The supplement of paper PMC13380429

Experiments:
[1] = system: Caco-2; test: drug sensitivity score (DSS) for viability; higher = more toxic; extreme values may be limits of the assay; conditions: 72 h
[2] = system: U2OS; test: as above; conditions: 72 h
[3] = system: HepG2; test: as above; conditions: 72 h
[4] = system: Vero E6; test: as above; conditions: 72 h
[5] = system: Calu-3; test: as above; conditions: 72 h
[6] = system: HepG2; test: cell viability relative to DMSO; higher = less toxic; conditions: 72 h; 100 nM

CN1C2CCC1CC(OC(=O)C(O)c1ccccc1)C2 (stereo unspecified) [Homatropine Bromide]
0: drug sensitivity score [1] | drug sensitivity score [2] | drug sensitivity score [3] | drug sensitivity score [4] | drug sensitivity score [5]
86.9%: cell viability [6]
